# Several values for one entry are separate records, joined by “and”; a condition that tells them apart may be missing. Equal entries are not always repeated. The campaign covered roughly 220,000 compounds. About 5,700 (2.6%) were called active. Inconclusive means that the source gave no clear call. Such entries were picked first, then a sample of the others. The call rests on the fitted dose curve; in most records, active means well fitted inhibition curve with a large enough effect; inconclusive means small, poorly fitted or top-dose-only effect; inactive means no such curve, though single readings can be large or run the other way. Where the call is inconclusive, the potency comes from a doubtful curve fit.
# Target: Lysine-specific demethylase 5B (Homo sapiens) (UniProt Q9UGL1)
# Chain of UniProt Q9UGL1 (Q9UGL1 whole entry, looked up): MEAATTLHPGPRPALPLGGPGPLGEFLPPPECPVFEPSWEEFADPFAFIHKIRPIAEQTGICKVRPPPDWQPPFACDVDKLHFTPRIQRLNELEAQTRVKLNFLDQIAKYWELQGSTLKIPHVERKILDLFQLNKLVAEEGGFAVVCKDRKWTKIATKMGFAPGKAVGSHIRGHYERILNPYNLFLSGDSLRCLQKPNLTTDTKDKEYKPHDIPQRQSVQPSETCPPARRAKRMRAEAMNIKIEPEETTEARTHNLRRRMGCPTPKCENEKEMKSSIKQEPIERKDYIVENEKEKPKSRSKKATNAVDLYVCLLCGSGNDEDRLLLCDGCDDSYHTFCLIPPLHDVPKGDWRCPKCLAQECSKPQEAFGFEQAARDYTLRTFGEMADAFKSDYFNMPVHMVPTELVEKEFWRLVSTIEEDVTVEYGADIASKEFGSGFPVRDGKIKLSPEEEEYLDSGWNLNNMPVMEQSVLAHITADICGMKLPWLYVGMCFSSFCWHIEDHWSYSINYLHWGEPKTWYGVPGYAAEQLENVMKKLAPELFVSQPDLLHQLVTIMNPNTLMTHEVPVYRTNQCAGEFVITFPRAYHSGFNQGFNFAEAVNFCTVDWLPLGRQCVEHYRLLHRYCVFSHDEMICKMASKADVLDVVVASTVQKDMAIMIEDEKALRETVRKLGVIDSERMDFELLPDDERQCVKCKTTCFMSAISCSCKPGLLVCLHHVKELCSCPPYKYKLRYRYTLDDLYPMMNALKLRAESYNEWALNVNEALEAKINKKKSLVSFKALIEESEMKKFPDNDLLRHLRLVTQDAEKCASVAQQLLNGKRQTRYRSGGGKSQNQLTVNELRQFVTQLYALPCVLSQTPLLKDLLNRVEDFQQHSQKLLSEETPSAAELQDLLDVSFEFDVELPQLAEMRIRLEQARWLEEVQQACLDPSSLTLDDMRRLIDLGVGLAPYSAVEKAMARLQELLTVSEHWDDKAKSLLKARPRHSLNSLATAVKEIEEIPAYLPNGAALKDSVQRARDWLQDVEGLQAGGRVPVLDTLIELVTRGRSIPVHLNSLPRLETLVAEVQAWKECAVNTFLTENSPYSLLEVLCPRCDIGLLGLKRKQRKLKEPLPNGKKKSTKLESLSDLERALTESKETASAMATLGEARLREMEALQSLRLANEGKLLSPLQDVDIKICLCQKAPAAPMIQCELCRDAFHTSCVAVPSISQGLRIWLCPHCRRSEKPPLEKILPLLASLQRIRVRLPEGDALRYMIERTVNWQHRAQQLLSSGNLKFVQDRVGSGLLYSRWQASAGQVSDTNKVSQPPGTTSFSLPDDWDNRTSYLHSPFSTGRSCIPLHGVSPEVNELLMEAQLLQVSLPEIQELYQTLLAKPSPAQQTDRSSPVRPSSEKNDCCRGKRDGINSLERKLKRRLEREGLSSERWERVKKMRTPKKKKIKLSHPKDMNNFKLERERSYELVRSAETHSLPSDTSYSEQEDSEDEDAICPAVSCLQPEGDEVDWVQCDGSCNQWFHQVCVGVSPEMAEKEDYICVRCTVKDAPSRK
# Test: Primary screen for KDM5B Histone Demethylases FDH-coupled qHTS; further: nearly all actives have a fitted effect of over 70% in size; on activity change, negative = inhibition: 0% is about no effect
# Conditions: FDH-coupled NADH fluorescence (FDH is formaldehyde dehydrogenase); activity change, negative = inhibition: at 57.7 µM (top of the series) unless noted
# Summary of the method: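 KDM5BΔAP (200 nM final) in 50 mM HEPES pH 7.5, 0.01% Tween-20 was preincubated 10 min at RT with compound over a concentration range. Substrate mix (H3K4me3 12.5 µM, α-KG 25 µM, Fe²⁺, ascorbate, NAD⁺, FDH) was added, and NADH fluorescence change over 30 min gave dose-response curves.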
# Potency means the concentration at half of the fitted maximal effect; tags describe the fitted curve by direction and shape.
Structure (SMILES),"activity change, negative = inhibition",Potency
O=C1NC(C(=O)NC2CCCCC2)Cn2cccc21 (stereo unspecified),inactive: -18.6%,
O=C(NCC1CCCO1)c1cc(-c2ccccc2F)cc2c1OCCN2Cc1cccnc1 (stereo unspecified),,active: 20 µM
CCCc1cc(=O)[nH]c(SCc2nc(-c3ccc(OCC)cc3)no2)n1,inconclusive: -37.6% [inhibitor],
CCOC(=O)c1ccc(NC(=O)CSc2nnc(CC)o2)cc1,inactive: 28.3%,
COc1cc(-c2cc(OC)c3c(C)oc(C)c3c(=O)c2)ccc1OC(=O)c1cccc(C)c1,,"inconclusive: 14.1 µM [inhibitor, partial curve, poor fit]"
Cc1ccc(CNC(=O)c2ccc3c(c2)c(C)c(C)n3Cc2ccc(Cl)cc2)o1,,"inconclusive: 10 µM [inhibitor, partial curve, poor fit]"
CCCCc1nc2ccccc2n1CC(O)c1ccc(F)cc1 (stereo unspecified),inactive: 4.63%,
CC(C)CCNC(=O)c1ccc(-c2ccccc2)s1,,"inconclusive: 20 µM [inhibitor, partial curve, poor fit]"
Cc1noc([C@@H]2C[C@H](NC(=O)Nc3ccccc3)CN2C)n1,inactive: -4.58% [at 86.2 µM],
Cc1cc(OCC(=O)NC2CC2)c2c(C)c(C)c(=O)oc2c1,,"inconclusive: 5.62 µM [inhibitor, full curve, poor fit]"
CN1C(=O)N(C)C2(CCN(CCOc3ccc(F)cc3)C2)C1=O (stereo unspecified),,"inconclusive: 31.6 µM [inhibitor, single point]"
COc1ccc(-c2ccc3nnc(CNC(=O)c4nccc5ccccc45)n3n2)cc1,,"inconclusive: 3.55 µM [inhibitor, partial curve, poor fit]"
CCc1cccc(C)c1Nc1nn2c(=O)c3ccccc3nc2s1,,"inconclusive: 39.8 µM [inhibitor, single point]"
O=C(O)CSCc1cccnc1,inactive: -4.43%,
CCOC(=O)c1ccc(N2C(=O)c3n[nH]c(-c4ccco4)c3C2c2ccccc2OC)cc1 (stereo unspecified),,"inconclusive: 2.82 µM [inhibitor, partial curve, poor fit]"
Cc1nnn2c(C(=O)Nc3ccc(Cl)nc3)cccc12,,"inconclusive: 14.1 µM [inhibitor, partial curve, poor fit]"
Cc1ccc(NC(=O)Cn2c(=O)n(Cc3ccccc3)c(=O)c3c(C)c(C(=O)N(C)C)sc32)c(C)c1,,"inconclusive: 28.2 µM [inhibitor, partial curve, poor fit]"
COc1ccc(CNC(=O)c2nn(C)c3c2CSc2ccccc2-3)cc1,,"inconclusive: 12.6 µM [inhibitor, partial curve, poor fit]"
COC(=O)c1c(C)oc2ccc(N(C(=O)c3ccncc3)S(=O)(=O)c3ccc(Br)cc3)cc12,,"inconclusive: 15.8 µM [inhibitor, partial curve, poor fit]"
N#Cc1ccc(NC(=O)c2cc(-c3cccs3)nc3ccccc23)cc1,,"inconclusive: 28.2 µM [inhibitor, partial curve, poor fit]"
CCOC(=O)C1=C(C)OC(N)=C(C#N)C1c1ccc(C(F)(F)F)cc1 (stereo unspecified),,"inconclusive: 28.2 µM [inhibitor, single point]"

Structure (SMILES),"activity change, negative = inhibition",Potency
COc1ccc(C)c2sc(N(Cc3cccnc3)C(=O)c3cccs3)nc12,,"inconclusive: 35.5 µM [inhibitor, partial curve, poor fit]"
COc1ccc(NC(=O)O[C@@H]2CO[C@H]3[C@@H]2OC[C@@H]3NS(=O)(=O)c2ccccc2C#N)cc1,,"inconclusive: 35.5 µM [inhibitor, partial curve, poor fit]"
O=C(NCC(F)(F)F)c1coc2ccccc2c1=O,inactive: -10.7%,
CCN1CCc2c(sc(-n3cccc3)c2C(C)NC(=O)Nc2ccc(C(=O)OC)cc2)C1 (stereo unspecified),,"inconclusive: 39.8 µM [inhibitor, single point]"
CCN(CC)S(=O)(=O)c1ccc(NC(=O)Cc2cn3ccsc3n2)cc1,inactive: 12.1%,
CN(C)C[C@@H]1CN(c2ccccn2)C[C@H]1NC(=O)CC1=CCCCC1,,active: 31.6 µM
CC(=O)Nc1ccc(-c2csc(NC(C)(C)C)n2)cc1,,"inconclusive: 39.8 µM [inhibitor, single point]"
O=C(c1cnn(-c2ccccc2F)c1-n1cccc1)N1CCN(c2ccccc2)CC1,inactive: 17.3%,
COc1cc(C2C=C(C(=O)O)Nc3ncnn32)ccc1O (stereo unspecified),,"inconclusive: 15.8 µM [inhibitor, partial curve, poor fit]"
Cc1ccccc1NNC(=O)C(=O)NNc1ccccc1C,,"inconclusive: 25.1 µM [inhibitor, single point]"
CCc1nc(NCCCO)c(C#N)c2c1CCCC2,,"inconclusive: 22.4 µM [inhibitor, partial curve, poor fit]"
O=S(=O)(Cc1cccc(Cl)c1)NCCc1noc(-c2ccccc2)n1,inactive: -6.2%,
CC(C)c1ccc(NC(=S)NNC(=O)C(N)=O)cc1,,"inconclusive: 25.1 µM [inhibitor, single point]"
COc1ccc(OC)c(S(=O)(=O)N2CCCCCCNC(=O)[C@@H]3CCCC[C@@H]32)c1,,"inconclusive: 2.82 µM [inhibitor, single point]"
O=C(NCCc1cccs1)c1ccc(Cn2c(SCc3cccc(F)c3)nc3cccnc32)cc1,,"inconclusive: 39.8 µM [inhibitor, single point]"
Cc1ccc(CN2CCCCCNC(=O)[C@H]3C[C@H](C(=O)N4CCc5ccccc5C4)C[C@H]32)o1,,"inconclusive: 14.1 µM [inhibitor, partial curve]"
COc1ccc(-c2cc3c(=O)n(CCNC(=O)c4ccc(C)s4)ccn3n2)cc1,inactive: -18.4%,
O=C(CCC1CCN(Cc2cnc[nH]2)CC1)NC1CCN(Cc2ccccc2)C1 (stereo unspecified),inactive: -8.2%,
Cc1ccc(CSC2=NC(C)(C)Nc3ccccc32)c(C)c1,,"inconclusive: 31.6 µM [inhibitor, partial curve, poor fit] and inconclusive: 22.4 µM [inhibitor, partial curve, poor fit]"
Cc1ccccc1NC(=O)c1ccc2c(c1)N(C)C1CCCN1C2=O (stereo unspecified),,"inconclusive: 20 µM [inhibitor, partial curve, poor fit]"

# Source: PubChem BioAssay AID1347165 (National Center for Advancing Translational Sciences (NCATS), 2019)
